In the BET-seq Pho4 binding data (Le et al. 2018):
The list shows a part of the results. The energies were worked out here from pooled read counts, against the library average; single values are noisy.

Biological target: T1, Pho4 (S. cerevisiae) (UniProt P07270)
T1 sequence: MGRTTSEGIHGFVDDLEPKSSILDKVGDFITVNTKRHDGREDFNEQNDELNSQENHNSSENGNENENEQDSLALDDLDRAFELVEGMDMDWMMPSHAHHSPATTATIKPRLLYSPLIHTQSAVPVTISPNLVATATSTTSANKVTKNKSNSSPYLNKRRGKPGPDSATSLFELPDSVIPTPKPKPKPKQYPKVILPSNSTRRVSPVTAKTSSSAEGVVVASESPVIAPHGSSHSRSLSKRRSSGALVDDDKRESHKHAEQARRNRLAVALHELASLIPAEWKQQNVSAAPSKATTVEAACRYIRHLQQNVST
Assay: relative binding free energy (BET-seq); higher = weaker binding
Settings: reference: library average

Sequence	relative binding free energy [kcal/mol]
TGCTTCACGTGATGGT	0.24
ATTTTCACGTGTGGGG	0.35
TGTTTCACGTGGAATT	0.24
GCGGGCACGTGGTATT	-0.08
TTTTTCACGTGGGCTG	0.23
TAGTCCACGTGATTGG	0.28
TTATCCACGTGTTTTT	-0.03
CTGGACACGTGGGGGA	-0.19
TTTGGCACGTGTATTT	0.12
ACTTGCACGTGCGGTG	-0.11
GGGCACACGTGAGATG	0.34
CGGGGCACGTGAAGGC	0.09
CGGTACACGTGTGGGC	0.16
ATTGTCACGTGTCGAG	0.03
TTAGACACGTGTGGCA	0.04
GACGACACGTGAGGGG	0.23
TTTGTCACGTGGTGCT	0.06
CGGTTCACGTGGGTGG	0.12
GGAAGCACGTGTTGTG	-0.04
ATAGTCACGTGCGTGG	0.01
GGGGCCACGTGGTGGA	-0.12
GTTTTCACGTGTAACG	0.21
TTTGCCACGTGGGAAG	-0.24
AGGATCACGTGGATCG	0.15
TTTAGCACGTGATGTC	0.11
CTATGCACGTGTGGTG	-0.06

Sequence	relative binding free energy [kcal/mol]
TAGGTCACGTGAGGCG	0.26
TTCGGCACGTGTGTTT	0.1
ATAGGCACGTGAGCGG	0.14
AAGCACACGTGTTTGT	0.16
GGGGGCACGTGCTAGT	-0.12
GTAAGCACGTGAGCGG	0.3
TTTTTCACGTGCGAAT	0.38
TCGTACACGTGGTAGG	0.02
ATTGTCACGTGCGAGT	0.03
GTATTCACGTGCTGGG	0.2
GGTGGCACGTGGGGGC	-0.15
AGGGTCACGTGCTTAA	0.12
AGGGGCACGTGTTCTG	-0.12
TGAGTCACGTGGAAGG	0.22
TTTCGCACGTGTTTAG	0.01
CATAGCACGTGGGTGT	-0.35
TTGTACACGTGTGCGG	0.08
GGTGGCACGTGTGACA	-0.02
TCATACACGTGGTGGG	-0.08
ATTGGCACGTGGGGAG	-0.29
TGAGACACGTGGTTTC	0.08
TGTGCCACGTGGATCG	-0.12
GTTATCACGTGGGTAA	0
TGAGTCACGTGGGGCG	-0.04
TTTGACACGTGTATAA	-0.08
TTTGTCACGTGGAAGA	0.29

Sequence	relative binding free energy [kcal/mol]
TAGGTCACGTGCAAGG	0.13
TTCGACACGTGGGATG	0.05
AAAGGCACGTGAGTGT	0.09
GAGATCACGTGGTAGG	0.05
AAAAACACGTGTTGTT	0
GGTTACACGTGCTTGA	0.06
ATGGACACGTGGTCAT	-0.01
GTAAACACGTGGGCGT	-0.09
TGTTACACGTGCATAT	0.06
TAGTACACGTGTTACG	0.17
AAGTGCACGTGGCGCG	-0.15
ATTAGCACGTGAGAGG	0.15
ATGAGCACGTGCGGTA	-0.05
CATGACACGTGGTGTA	-0.07
TTTTTCACGTGTTATT	0.32
AGCTGCACGTGTGGGG	0
TGTATCACGTGGGCTA	-0.01
GACTTCACGTGTAGGT	0.42
GATTTCACGTGATATA	0.42
GGGTCCACGTGTATAG	0.13
GAGGGCACGTGTAATG	0.18
GGGATCACGTGTATTG	0.13
GGCAACACGTGTGGTT	0.15
GCAAGCACGTGGGATG	-0.16
TTGATCACGTGGGTGT	0.06
GGACTCACGTGGAGGT	0.18

Sequence	relative binding free energy [kcal/mol]
CGTAGCACGTGTTTGT	-0.1
AGGCTCACGTGCGTTT	0.21
TTAGGCACGTGACGGG	-0.05
TGTAACACGTGGGTGG	-0.07
AGGTTCACGTGTTGAA	0.19
GTTAGCACGTGTCGGG	0.11
TCCGTCACGTGGTGGG	-0.01
ACGGGCACGTGCTAGG	-0.08
ATTAGCACGTGGTTGT	-0.06
GGGGACACGTGTGTTC	0.16
GTTGACACGTGAGAGA	0.27
AGAGGCACGTGTAGTA	-0.03
TTATGCACGTGGGATC	-0.17
GAGGGCACGTGCGGGG	-0.07
GGGTGCACGTGAGCGG	0.26
TAATACACGTGTGCGG	0.06
ATGAGCACGTGTTTGC	-0.21
CTAGTCACGTGAGGTT	0.35
GTAGGCACGTGGATAA	0.01
AGTTACACGTGTCTGG	0.11
AGAAGCACGTGTGCGT	-0.01
TGAGGCACGTGTCGGA	0.02
GAAGTCACGTGGCAGG	0.11
TTGATCACGTGGTGAA	0.14
TCGATCACGTGTATTG	0.04
TCGGGCACGTGAGGTA	0.08

Sequence	relative binding free energy [kcal/mol]
TTGATCACGTGAAGGT	0.35
CTCGTCACGTGTCGGG	0.09
CCGTGCACGTGTGGTG	-0.06
CTAAACACGTGGTGTG	-0.16
GCGTGCACGTGTTAGT	-0.05
TGCGTCACGTGGTGGG	0.04
TTGGGCACGTGGTTGA	-0.19
ATGTTCACGTGTTGCT	0.25
TTTGCCACGTGGAATT	0.05
TGGGACACGTGAGTGA	0.35
ACATTCACGTGGTGTA	0.07
TTTTACACGTGGGAAA	-0.03
TGAGGCACGTGTAATT	0.05
AGCGGCACGTGCGTGT	-0.33
TCAGTCACGTGTATTT	0.16
TCGAACACGTGTGGTG	0.02
GGGCTCACGTGGGGTG	0.03
GGCGTCACGTGCGAGG	-0.03
GTTATCACGTGTCGAT	0.25
GTGCGCACGTGGTATG	-0.11
ATGTCCACGTGATAGT	0.24
ATGTACACGTGTCAGT	0.03
ACTGGCACGTGATTAG	0.03
GGGGGCACGTGGAATT	0.08
GTGTACACGTGAGGGG	0.37
AGGGTCACGTGTCTAA	0.11

Sequence	relative binding free energy [kcal/mol]
CTGTCCACGTGTAGGG	0.06
TTATGCACGTGTTTGA	-0.06
GTTGGCACGTGGGAAA	-0.06
GGATGCACGTGGCAGG	-0.13
GATGACACGTGTATTT	0.14
CGATGCACGTGATGTT	0.04
AAATACACGTGGTGTG	-0.04
GTTCTCACGTGGGATG	0.18
TATGCCACGTGTTTGG	-0.24
ACTTTCACGTGGGAGG	0.11
TGCGACACGTGGAAGG	0.08
GTTAGCACGTGATTTT	0.24
TGTGTCACGTGCGGTA	0.14
TTTAACACGTGCTTGT	-0.07
GGTGTCACGTGCAAAG	0.05
GTGCACACGTGGGATG	-0.05
TATGACACGTGAAAGG	0.41
TGTTGCACGTGTAAGC	0.1
AGGTTCACGTGGCTAA	0.12
AATGTCACGTGGCGGA	0.06
AAGTTCACGTGGTCTT	0.27
GGAGGCACGTGCGTAG	-0.05
AGTTTCACGTGTGTTG	0.37
TATTACACGTGAGACG	0.39
TTTTGCACGTGGGGTG	-0.13
ATTACCACGTGGGGAA	0.07

Sequence	relative binding free energy [kcal/mol]
GTTAGCACGTGGTTTC	0.01
TGTGACACGTGCGGGA	-0.05
TATTGCACGTGTGTAG	0.01
GCAGGCACGTGAAGTG	0.12
TAGGTCACGTGGTTAA	0.09
TAGTTCACGTGCTTTG	0.19
AGGCGCACGTGAGGGC	0.07
GGGTTCACGTGGTATC	0.49
GAGGACACGTGGTCAG	0.09
CAATGCACGTGGGTAG	-0.17
GGTGGCACGTGCCTGA	-0.1
GAGTTCACGTGGAAGA	0.4
GGAGACACGTGAAGGT	0.29
GTGTACACGTGATGTT	0.21
AGGTGCACGTGAAGAG	0.14
GCTGGCACGTGAAAGG	0.1
TGGGCCACGTGATTAA	0.18
GGCTTCACGTGATGGG	0.41
TTAGGCACGTGCGGTT	-0.18
TTATACACGTGTTGGC	0.04
CGGGTCACGTGCTTGT	0.15
AAGATCACGTGAGGGC	0.29
TACGTCACGTGTTTAG	0.09
TATTCCACGTGGTGTA	-0.01
TTAAGCACGTGCTTGG	-0.14
GTGGACACGTGCATTT	0.2

Sequence	relative binding free energy [kcal/mol]
GATTCCACGTGTGGAT	0.24
AGGGGCACGTGGAAAG	-0.08
AGTTGCACGTGATATA	0.05
TGACACACGTGTTTTT	0.05
GTTGGCACGTGGTCCT	-0.22
GATGTCACGTGCGGTC	0.23
TTGATCACGTGAGTGC	0.51
ATCATCACGTGTATGT	-0.01
AATAGCACGTGTGGAT	-0.02
CTAGTCACGTGTTATA	0.23
AAATACACGTGGATGT	0.11
ATGGTCACGTGTTTCT	0.01
CTGGGCACGTGAGTCT	0.23
CTTAACACGTGTGTGG	0.06
GGATTCACGTGGGATG	0.28
AATTACACGTGGTTAA	0.07
ATTGTCACGTGGAATA	0
CTGTACACGTGGATTT	0.09
GAGATCACGTGCTGGT	0.04
ATGAACACGTGGGAGA	-0.04
AGAGGCACGTGCGTAG	-0.3
TGTGACACGTGTCTGT	-0.02
TAGTGCACGTGGTCGA	-0.15
GGTATCACGTGAGTGG	0.33
AGTTCCACGTGGGGGT	-0.14
TAATTCACGTGGTCTG	0.26

Sequence	relative binding free energy [kcal/mol]
ATTGACACGTGGAGAT	-0.03
GGGTGCACGTGATGAG	0.21
GTATACACGTGGAGTT	0.07
TGGTACACGTGTTGCG	-0.07
GGTGACACGTGCGGCT	0
GGGTGCACGTGCGGTG	-0.09
GCGTTCACGTGAAGTT	0.4
GTTTCCACGTGCGTGG	0.04
TGTAGCACGTGTGCGG	-0.04
CGGGGCACGTGGCGGC	-0.14
AAACTCACGTGGTGGG	0.23
AGATGCACGTGAAGTG	0.11
AAGGTCACGTGGTTAG	-0.03
ATAGTCACGTGTCGAG	0.18
ATTTACACGTGTAGAT	0.19
CTTTGCACGTGTAAGA	0.22
ATGGCCACGTGGTAGG	-0.16
AAGGTCACGTGCTGGA	-0.05
CGGTTCACGTGGGTTG	0.13
TTAGGCACGTGCTAAT	-0.13
TTTGACACGTGCTTGT	-0.1
AGGAGCACGTGAGGGA	0
